Assay results reported in PubChem BioAssay AID504466 (National Center for Advancing Translational Sciences (NCATS), 2011).
The campaign covered roughly 330,000 compounds. About 4,200 (1.3%) were called active. Inconclusive results, whose numbers are uncertain, are shown with a selection of clear calls. Calls follow the shape of the dose curve; as a rule, active = well fitted activation curve with a large enough effect; inconclusive = small, poorly fitted or top-dose-only effect; inactive = no such curve, though single readings can be large or run the other way. A potency beside an inconclusive call is a rough fit, not a confirmed value.

assay: qHTS screen for small molecules that induce genotoxicity in human embryonic kidney (HEK293T) cells expressing luciferase-tagged ELG1; conditions: HEK293T ELG1-luciferase reporter, luminescence, 16 h; series mostly up to 46 µM; activity change, positive = activation: at the top concentration; also: nearly all actives have a fitted effect of over 60% in size; as to activity change, positive = activation: % of control where 0% means no effect
Outline: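 Genotoxicity was scored as increased ELG1-luciferase reporter signal, measured by ONE-Glo luminescence (30 min, room temperature). Compound or vehicle exposure of the HEK293T reporter cells lasted 16 hr at 37°C.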
Potency is read from the fitted curve at half-maximal effect; tags tell the direction and shape of the fitted curve.

Row | SMILES | Potency | activity change, positive = activation
1 | Cc1ccc(C(=O)NCCn2cc(SCC(=O)N3CCOCC3)c3ccccc32)cc1 | inconclusive: 16.4 µM [activator, single point] | –
2 | N/C(=N\OC(=O)c1ccco1)c1ccc(Br)cc1 | inconclusive: 2.91 µM [activator, full curve] | –
3 | COc1cccc(-c2cc(C(=O)Nn3cnnc3)c3ccccc3n2)c1 | – | inactive: 5.4%
4 | Cc1cccn2cc(-c3c[nH]c4ccccc34)nc12 | inconclusive: 18.3 µM [activator, partial curve] | –
5 | Cc1ccccc1NC(=O)C(=O)NCc1ccccn1 | inconclusive: 25.9 µM [activator, single point] | –
6 | CNC(=S)N/N=C/c1ccc(N(C)C)cc1 | inconclusive: 11.6 µM [activator, partial curve] | –
7 | O=C(Nc1nccs1)c1ccc(Br)s1 | inconclusive: 11.6 µM [activator, partial curve, poor fit] | –
8 | Cn1ccc(NC(=O)c2ccc(Cl)cc2Cl)n1 | inconclusive: 11.6 µM [activator, partial curve] | –
9 | COc1cc(/C=C(\C#N)c2nc3ccccc3s2)ccc1OCC(=O)Nc1ccccc1 | inconclusive: 32.6 µM [activator, partial curve, poor fit] | –
10 | Cn1c(=N)n(CC(=O)c2ccc(F)cc2)c2ccccc21 | inconclusive: 0.259 µM [activator, full curve, poor fit] | –
11 | CCOC(=O)/C(C#N)=C\c1ccc(N2CCN(C)CC2)cc1 | – | inactive: 3.99%
12 | CCOC(=O)c1ccc(NC(=O)c2ccc(NC(=O)c3ccccc3)cc2)cc1 | inconclusive: 8.91 µM [activator, partial curve, poor fit] | –
13 | CCCNc1nc2ccccc2n2c(C)nnc12 | inconclusive: 14.6 µM [activator, partial curve] | –
14 | Cc1cc(/C=C2/C(=O)NN(c3ccccc3)C2=O)c(C)n1-c1cccc(O)c1 | inconclusive: 2.59 µM [activator, partial curve] | –
15 | COc1cc2c(cc1NC(=O)COC(=O)Cn1cnc3ccccc31)oc1ccccc12 | active: 23.1 µM | –
16 | O=C(NCc1ccc2c(c1)OCO2)NC1CCCCC1 | inconclusive: 18.3 µM [activator, partial curve, poor fit] | –
17 | Cc1ccc(NC(=O)c2ccc(OC(=O)c3cc4ccccc4o3)cc2)cc1 | active: 3.16 µM | –
18 | C=CCN1C=CC(=C/C=C(/C#N)C(=O)OCC)C=C1 | active: 7.31 µM | –
19 | C/C(=N/NC(=O)c1ccoc1C)C12CC3CC(CC(C3)C1)C2 | inconclusive: 23.1 µM [activator, single point] | –
20 | COc1cccc(C(NC(C)=O)c2ccc3cccnc3c2O)c1 (stereo unspecified) | inconclusive: 18.3 µM [activator, single point] | –
21 | O=C1CC(c2ccccc2Cl)c2c(sc3c(=O)[nH]c(CCl)nc23)N1 (stereo unspecified) | – | inactive: 3.82%
22 | COc1ccc(-c2c3c(=O)n(C)c(=O)n(C)c3cn2-c2ccc(O)cc2)cc1 | – | inactive: -0.0677%
23 | O=c1cc(-c2ccc(Cl)cc2)nc(N2CCN(c3ccccc3)CC2)[nH]1 | inconclusive: 23.1 µM [activator, partial curve, poor fit] | –

Row | SMILES | Potency | activity change, positive = activation
24 | COC(c1ccccc1)c1nnc(CCC(=O)N(C)CCOc2ccccc2)o1 (stereo unspecified) | inconclusive: 20.6 µM [activator, partial curve] | –
25 | COc1cc(-c2nc(-c3ccc(NC(=O)c4ccc5c(c4)OCO5)cc3)no2)cc(OC)c1OC | active: 13 µM | –
26 | Cc1cc(N=Nc2ccc3ccccc3c2)ccc1O | active: 7.3 µM | –
27 | C=CCN(CC(=O)O)S(=O)(=O)c1ccccc1C(F)(F)F | – | inactive: -0.333%
28 | O=C(CNC(=O)c1ccc(Cl)cc1)NNc1c(F)c(F)cc(F)c1F | – | inactive: -2.98%
29 | NC(=S)N/N=C/c1c(O)c(Br)cc2oc3c(c12)CCCC3 | – | inactive: -0.0446%
30 | COc1ccc(C)cc1N1C(=N)/C(=C2/Nc3ccccc3S2)C(c2ccccc2)C1=O (stereo unspecified) | inconclusive: 20.6 µM [activator, partial curve, poor fit] | –
31 | Cc1ccc(NC(=O)c2ccc3nsnc3c2)c(Cl)c1 | inconclusive: 1.64 µM [activator, partial curve] | –
32 | Nc1nc(NC(=O)c2cccs2)nn1-c1ccccc1 | inconclusive: 14.6 µM [activator, partial curve] | –
33 | O=C(O)c1cc(-c2ccc(-c3ccc(F)cc3)o2)nc2ccccc12 | inconclusive: 5.17 µM [activator, partial curve, poor fit] | –
34 | CC(=O)Nc1ccc(-c2csc(Nc3ncccn3)n2)cc1 | active: 9.2 µM | –
35 | COc1ccccc1Oc1cn[nH]c1-c1ccc(OCC(=O)NN)cc1O | – | inactive: -4.97%
36 | Cc1ccc(S/C=C\C(=O)c2ccccc2)cc1 | active: 18.4 µM | –
37 | COc1ccc(-c2noc(CN(C)S(=O)(=O)c3ccc(C)cc3)n2)cc1 | – | inactive: 13.2%
38 | COC(=O)CCC(=O)N1CCCC(CO)(Cc2ccccc2)C1 (stereo unspecified) | active: 20.6 µM | –
39 | COc1ccc(C2/C(=C(\O)c3ccc4c(c3)OCCO4)C(=O)C(=O)N2c2nc(C)c(C(C)=O)s2)cc1 (stereo unspecified) | inconclusive: 20.6 µM [activator, partial curve, poor fit] | –
40 | CC(C)c1ccc(OC(=O)NCCO)cc1 | inconclusive: 25.9 µM [activator, single point] | –
41 | COCCNC(=O)c1ccc2c(Cl)c3c(nc2c1)CCC3 | inconclusive: 14.6 µM [activator, partial curve, poor fit] | –
42 | COc1ccc(-c2oc(=O)c3cc(OC)c(OC)cc3c2C#CC2(O)CCCCC2)cc1 | inconclusive: 20.6 µM [activator, partial curve, poor fit] | –
43 | COc1ccc(/C=C2\SC(=S)N(NC(=O)c3ccncc3)C2=O)cc1OC | – | inactive: 1.08%
44 | Cc1ccc(NC(=O)c2ccc3snnc3c2)cc1C | inconclusive: 20.6 µM [activator, partial curve] | –
45 | CC1(C)CC(=O)C2=C(C1)c1c(ccc3ncccc13)NC2c1cccs1 (stereo unspecified) | inconclusive: 18.4 µM [activator, partial curve, poor fit] | –
46 | Cc1ccc(C(=O)OCC(=O)c2ccc(CC(=O)N3CCOCC3)s2)cc1C | – | inactive: 1.22%
